Measured values taken from PubChem BioAssay (NCI).
Where “and” joins values, the source holds several entries; their conditions need not be identical. Equal entries are not always repeated.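 Interpolation was linear, between the two tested concentrations surrounding the appropriate level; five concentrations were tested over 48 hours in 96-well plates. At the GI50, growth is halved. At the TGI there is no net growth.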 Calls of active or inactive are those of the source. Cut-off read from the data, not from the text of the source: active = GI50 below about 0.43 µM; inactive = the rest.

Tested on: NCI-H322M lung
Experiment: NCI-60 cell line screen, 48 h

SMILES	TGI	GI50	outcome
C=CCSc1nc2c(N)ncnc2n1C1OC(CO)C(O)C1O (stereo not drawn)	> 100 µM	–	–
CC(C)/C(Cl)=N\OC(=O)Nc1ccc(F)cc1	24.3 µM	–	–
C=C1CC2(OC1=O)C(=O)N(C)c1ccc(I)cc12 (stereo not drawn)	24 µM	11.3 µM	–
O=C1c2ccccc2-c2nc(-c3ccncc3)cc3c2c1nc1ccccc13	> 100 µM	–	–
CNC(=O)C(CCc1ccccc1)NC(=O)C(CC(=O)NO)CC(C)C (stereo not drawn)	> 25 µM	> 25 µM	–
O=C(Nc1cccc(-n2ccc3c(NC(=O)c4ccccc4)nccc32)c1)Nc1ccc(Cl)c(C(F)(F)F)c1	> 100 µM	1.19 µM	–
COc1cc(/C=C2/SC(c3ccccc3)N(c3cccc(NC(C)=O)c3)C2=O)cc(OC)c1OC (stereo not drawn)	> 100 µM	–	–
COC(=O)[C@](NC(=O)OCc1ccccc1)([C@@H](C)S(=O)c1ccc(C)cc1)C(F)(F)F (stereo partly drawn)	> 100 µM	–	–
CCCCc1c2c(nc3c1CCCC3=O)C(=O)CCC2	> 100 µM	–	–
CCOC(=O)c1nc2cc(C(F)(F)F)ccc2nc1Oc1ccc(OC)cc1	> 100 µM	–	–
COc1ccc2c(c1)[C@@H]1c3cc(OC)c(OC)cc3CCN1CCC2	> 100 µM	–	–
O=C(/C=C/c1cc2ccccc2[nH]c1=O)c1ccc(Cl)cc1	> 92.4 µM	49.7 µM	–
Sc1ccccc1S	> 100 µM	–	–
O=C1NN=C2C=C(c3ccc(Cl)cc3)CC(c3cccc(Br)c3)C12 (stereo not drawn)	> 100 µM	–	–
CO[C@@H]1C[C@H]2[C@@H]3CC[C@H]([C@H](C)CO)[C@@]3(C)CC[C@@H]2[C@@]2(C)CC[C@H]3C[C@]312	> 100 µM	–	–
COc1ccc([C@@H]2C[C@@H]3C(=O)OC(=O)[C@@H]3c3c2c2ccccc2n3C)cc1	> 100 µM	–	–
O=[N+]([O-])c1ccc2[nH]c3c(-c4ccccc4)nccc3c2c1	71.9 µM	–	–
Cc1cccc2c1CC(C1OC(=O)c3ccccc31)C2=O (stereo not drawn)	> 100 µM	–	–
O=C1NC(=O)/C(=C/c2c(Cl)nc3sccn23)S1	> 100 µM	> 89.1 µM	–
O=C1C(Cl)=C(Nc2cccc(O)c2)C(=O)N1CCc1ccccc1	37.5 µM	17.9 µM	–
CC1NS(=O)(=O)N(C)C1=O (stereo not drawn)	> 100 µM	–	–
CCC1CC(C)C(O)/C=C/C=C/CC(C)OC(=O)CC(O)C(OC)C1OC1OC(C)CC(O)(C(C)=O)C1O (stereo not drawn)	> 100 µM	–	–
COc1cccc2c1C(=O)c1c(O)c3c(c(O)c1C2=O)CC(O)(/C(C)=N/NC(=O)CCCCC(=O)N/N=C(\C)C1(O)Cc2c(O)c4c(c(O)c2C(OC2CC(N)C(O)C(C)O2)C1)C(=O)c1c(OC)cccc1C4=O)CC3OC1CC(N)C(O)C(C)O1 (stereo not drawn)	> 33.2 µM	1.01 µM	–

SMILES	TGI	GI50	outcome
COC(=O)[C@@H](C)C[C@H](Cc1ccccc1)NC(=O)c1cccc([C@@H](C[C@H](C(C)C)N(C)C(=O)[C@@H](NC(=O)[C@H]2CCCCN2C)C2CC2)OC(C)=O)n1	33.3 µM and > 100 µM	–	–
Cc1c(S(=O)(=O)/N=C(\NN)Nc2ccc(Cl)cc2)sc2ccc(Cl)cc12	31.1 µM	–	–
CCCC(=O)N(C(=O)CCC)C1=C(Cl)C(=O)c2ccccc2C1=O	> 100 µM	–	–
COc1ncc(-c2ccc3nccc(C#CCCCCC(=O)O)c3c2)cc1NS(=O)(=O)c1ccc(F)cc1F	12.7 µM	0.456 µM	–
N#Cc1c(-c2ccc([N+](=O)[O-])cc2)cc(-c2ccc(Nc3ccnc4cc(C(F)(F)F)ccc34)cc2)[nH]c1=O	> 100 µM	–	–
CN(C)c1ccc(Nc2ncnc3ccccc23)cc1	> 100 µM	> 100 µM	–
CCN1C(=O)C(=C/C=C/c2ccc(OC)cc2)C(=O)N(CC)C1=S	> 100 µM	–	–
CNc1ccc(/C=C2\C=Cc3ccccc32)cc1	> 100 µM	–	–
C[C@]1(O)CC[C@H]2[C@@H]3CCc4cc(O)ccc4[C@H]3CC[C@@]21C	17.4 µM	–	–
COC(=O)C1Cc2c([nH]c3ccccc23)C(C2CCCCC2)N1 (stereo not drawn)	> 100 µM	–	–
O=C(Nc1ccc(-n2cc(-c3ccncc3)c(-c3ccc(O)c(Cl)c3)n2)cc1)c1cc(C(F)(F)F)cc(C(F)(F)F)c1	> 25 µM	15.8 µM	–
Cc1c([C@H](C(Cl)Cl)[C@H](O)[C@H]2C[C@H](C)C(=O)O2)ccc2c1C(=O)[C@H]1[C@H]2C[C@@H](Br)[C@@]23O[C@@H](CO[C@H]2O)CC13C (stereo partly drawn)	> 50 µM	0.887 µM	–
c1cc(-c2ccc(-c3ccc(C4=NCCCN4)cc3)o2)ccc1C1=NCCCN1	> 100 µM	–	–
Cc1ccc(C)c2c1C/C(=C\c1ccccc1C(=O)O)C2=O	> 100 µM	–	–
CCOC(=O)C1C(c2ccccc2)=C(c2ccccc2)C(c2ccccc2)=C1c1ccccc1	> 100 µM	–	–
COc1cc(/C=C/C(=O)Nc2ccc3c(c2)/C(=C\c2cccn2C)C(=O)N3)cc(OC)c1OC	> 100 µM	6.79 µM	–
O=C(CN=C(CN(c1ccccc1)c1ccccc1)Oc1c(Cl)cc(Cl)cc1Cl)N1c2ccccc2Sc2ccccc21	> 100 µM	–	–
CCCCC1CC(c2ccc(Cl)cc2)=NO1 (stereo not drawn)	> 100 µM	–	–
O=C(C=P(c1ccccc1)(c1ccccc1)c1ccccc1)c1ccc(-c2cccc([N+](=O)[O-])c2)cc1	64.1 µM	–	–
C[C@]12CC[C@H](O)CC1=CC[C@@H]1C2CC[C@]2(C)c3n[nH]nc3CC12 (stereo partly drawn)	> 100 µM	–	–
COc1ccc2c(c1)C(N)=C(c1ccccc1OC)C2=O	> 100 µM	–	–
CN(/N=C(\C(=O)O)c1ccccc1)C1=NCCCCN1	> 100 µM	–	–
COC1CCN(N(C)C)O1 (stereo not drawn)	> 100 µM	–	–

SMILES	TGI	GI50	outcome
CCN(C(=N)C#N)c1ccccc1	> 100 µM	–	–
Cn1c(C(O)C2(c3cccnc3)SCCCS2)cc2ccccc21 (stereo not drawn)	> 100 µM	–	–
Brc1ccc(SCN(CSc2ccc(Br)cc2)Cc2ccccc2)cc1	18.4 µM	4.34 µM	–
CCOC(=O)/C(=C\c1ccccc1)C(=O)CCN1CCOCC1	53.2 µM	–	–
CC(C)N(C(=O)C12C3C4C1C1C2C3C41C(=O)O)C(C)C (stereo not drawn)	> 100 µM	–	–
O=C1c2ccccc2C(=Nc2ccc3ccccc3c2)C1(C1=C(c2ccccc2)C(=Nc2ccc3ccccc3c2)c2ccccc21)c1ccccc1 (stereo not drawn)	> 100 µM	–	–
COc1ccc(S(=O)Cc2cc(OC)c(OC)c(OC)c2)cc1 (stereo not drawn)	> 100 µM	–	–
CCOP(=S)(OCC)Oc1ccc2c(c1)OC(=O)C1(Cl)C2(C)C2(Cl)C(=O)Oc3cc(OP(=S)(OCC)OCC)ccc3C12C (stereo not drawn)	29.8 µM	–	–
O=C1C(Cl)C(c2cc(Br)cc(Br)c2O)N1n1cnc2ccccc2c1=O (stereo not drawn)	53.8 µM	–	–
COc1ccc(C(=C[N+](=O)[O-])c2ccc(OC)cc2)cc1	> 82.6 µM	–	–
C[n+]1c2ccccc2n2c3ccccc3c(NCCCN3CCOCC3)c(C#N)c21	10.8 µM	–	–
CCN1C(=O)N(C)C(O)c2c1nc1ccccn1c2=O (stereo not drawn)	88.3 µM	–	–
CC1(C)OC(=O)C(c2cccs2)C(=O)O1	> 100 µM	–	–
Cc1cc(NS(=O)(=O)c2ccc(Nc3c4ccccc4nc4c(C(=O)Nc5ccc(S(N)(=O)=O)cc5)cccc34)cc2)no1	65.4 µM	–	–
C=C1C(=O)O[C@H]2[C@H]1CC/C(CNC(=O)c1cccc3ccccc13)=C\CC[C@@]1(C)O[C@@H]21	23.3 µM	11 µM	–
O=[N+]([O-])c1ccc(C2N3CCCCC3[C@H]3CCCCN23)cc1 (stereo partly drawn)	> 100 µM	–	–
C(=N\c1nc2cc3sc(/N=C/c4cccs4)nc3cc2s1)/c1cccs1	> 100 µM	–	–
COC(=O)[C@]12CC[C@H]3CN(C(=O)OCc4ccccc4)[C@H]([C@H]31)[C@H](c1ccco1)N2	> 100 µM	–	–
O=C(Nc1c(Cl)cccc1Cl)c1c(Cl)c(Cl)c(Cl)c(Cl)c1-c1nc2ccccc2[nH]1	> 100 µM	–	–
CN(C)c1[se]nc2c1c(=O)n(C)c(=O)n2C	> 100 µM	–	–
C=CCc1cc(OC)c2c(c1)C(OC(C)=O)CC(c1ccc(OC)c(OC)c1)O2 (stereo not drawn)	> 100 µM	–	–
Fc1c(F)c(F)c2c(c1F)CSc1nc3ccccc3n1-2	> 100 µM	–	–
CCOC(=O)Cc1csc(NC(=O)COC(=O)c2ccc(N)cc2)n1	> 100 µM	> 100 µM	–

SMILES	TGI	GI50	outcome
COc1ccc2c(c1)oc1c(C)c3c(c(C)c12)C(=O)N(N)C3=O	> 100 µM	> 100 µM	–
CC1=NCC[N+]1(CCc1ccccc1)Cc1ccccc1 (stereo not drawn)	> 100 µM	–	–
CCOC(=O)C(C(CC(=O)OC)NC(=O)OCc1ccccc1)C1(C)OCCO1 (stereo not drawn)	> 100 µM	–	–
O=C(NCCOC(=O)OCCNC(=O)NC1CCCCC1)NC1CCCCC1	> 100 µM	–	–
O=C1CSC(c2ccccc2O)N1c1ccc(-c2ccc(-n3c(-c4ccccc4)nc4ccccc4c3=O)cc2)cc1 (stereo not drawn)	65.2 µM	–	–
Cc1nc2c(n1CC(C)C)C(=O)c1ccccc1C2=O	> 100 µM	–	–
COc1cccc(/C=C/c2ccc(S(N)(=O)=O)cc2)c1	> 100 µM	–	–
Cn1c(=O)n(CCCO)c(=O)c2c1nc(Oc1cccc(OC(F)(F)F)c1)n2Cc1ccc(Cl)cc1	30.6 µM	15 µM	–
CCCc1nc(N)nc(C(=O)Nc2cccc(C(F)(F)F)c2)c1CC	> 100 µM	–	–
C/C(=N\NC(=S)Nc1ccccc1)c1nc2ncccc2[nH]1	> 100 µM	–	–
Cc1cc(C#N)c[n+](C)c1	> 100 µM	–	–
CC(=O)OC1CC2CC(=O)CC1N2C (stereo not drawn)	> 100 µM	–	–
O=C(c1ccc(Cl)cc1Cl)N(/N=C/C=C/c1ccccc1)c1nnc(-c2ccccc2)c(-c2ccccc2)n1	> 100 µM	–	–
CC(=O)[CH-]C(=O)c1ccccc1.CC(=O)[CH-]C(=O)c1ccccc1.CCN(CC)CC[O-].CCN(CC)CC[O-].Cl.[Hf+4]	> 100 µM	> 100 µM	–
C[C@H](N)C(O)C/C=C\CC(O)/C=C/C=C\C/C=C\C/C=C\C/C=C\CCCCCCC(O)[C@H](C)N (stereo partly drawn)	–	–	inactive
CC(=O)Oc1ccc2[nH]c3c(C)c4cccc-4ccc3c2c1	5.39 µM	–	–
CCC(O)CC1OC2(CCC1C)CC1OC(=O)/C=C\C(C)(O)C(O)C(C)C(O)C(OC3CC(OC)C(O)C(C)O3)C(O)C(C)(O)CCC/C=C/C3CC(C)COC3(O)CC(O2)C1C (stereo not drawn)	> 92.6 µM	–	–
CCOC(=O)c1ccc2c(c1)[n+](=O)c(C(=O)C1CCCS1)c(C(F)(F)F)n2[O-] (stereo not drawn)	3.05 µM	1.59 µM	–
O=C1c2scc(-c3ccccc3)c2-n2cccc21	60.4 µM	–	–
COc1ccc(C2/C(=C(\O)c3ccccc3)C(=O)C(O)(CC(=O)c3ccccc3)N2c2ccc(OC)cc2)cc1 (stereo not drawn)	> 78.8 µM	–	–
